Assay results: the supplement of paper PMC4967469

Tests used:
Test in all cases: Viability of human cancer cell lines after 72 h of drug (GDSC screen)
Trametinib = compound: CC(=O)Nc1cccc(-n2c(=O)n(C3CC3)c(=O)c3c(Nc4ccc(I)cc4F)n(C)c(=O)c(C)c32)c1 [Trametinib]; details: top dose 1 µM
Description: (§1)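 Human cancer cell lines in 384-well plates, medium with 10% serum, drug for 72 h over a 256-fold dose range (nine 2-fold or five 4-fold steps up to the top dose). Adherent lines were fixed and stained with the nucleic acid dye Syto60, suspension lines read with resazurin; signal relative to control wells, capped at 0 and 100%. One two-parameter sigmoid per drug and line, fitted in a mixed model over all curves with the slope shared within a line.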

HG-6-64-1 = compound: CCN1CCN(Cc2ccc(NC(=O)c3ccc(C)c(/C=C/c4cnc5[nH]ccc5c4OC)c3)cc2C(F)(F)F)CC1 [HG-6-64-1]; details: top dose 5.12 µM; top dose inferred
Description: as §1

I-BET-762 = compound: CCNC(=O)C[C@@H]1N=C(c2ccc(Cl)cc2)c2cc(OC)ccc2-n2c(C)nnc21 [I-BET-762]; details: top dose 20 µM; top dose inferred
Description: as §1

AV-951 = compound: COc1cc2nccc(Oc3ccc(NC(=O)Nc4cc(C)on4)c(Cl)c3)c2cc1OC [AV-951]; details: top dose 0.128 µM; top dose inferred
Description: as §1

KIN001-244 = compound: O=C(NC(COc1ccc2[nH]c(=O)[nH]c2c1)c1ccccc1)c1cccn(Cc2ccc(F)c(F)c2)c1=O [KIN001-244]; details: top dose 20 µM; top dose inferred
Description: as §1

PF-4708671 = compound: CCc1cncnc1N1CCN(Cc2nc3ccc(C(F)(F)F)cc3[nH]2)CC1 [PF-4708671]; details: top dose 10 µM; top dose inferred
Description: as §1

| Cell Line | AUC (Trametinib) | IC50 (Trametinib) [µM] | AUC (HG-6-64-1) | IC50 (HG-6-64-1) [µM] | AUC (I-BET-762) | IC50 (I-BET-762) [µM] | AUC (AV-951) | IC50 (AV-951) [µM] | AUC (KIN001-244) | IC50 (KIN001-244) [µM] | AUC (PF-4708671) | IC50 (PF-4708671) [µM] |
| --- | --- | --- | --- | --- | --- | --- | --- | --- | --- | --- | --- | --- |
| 769-P (kidney, adherent) | 0.495 | 0.0603 | 0.673 | 1.02 | 0.911 | > 20 | 0.972 | > 0.128 | 0.872 | > 20 |  |  |
| A704 (kidney, adherent) | 0.868 | 0.868 | 0.712 | 1.25 |  |  | 0.988 | > 0.128 | 0.94 | > 20 |  |  |
| CHSA0011 (chondrosarcoma, adherent) | 0.438 | 0.0395 | 0.924 | > 5.12 | 0.958 | > 20 | 0.954 | > 0.128 | 0.902 | > 20 |  |  |
| COLO-783 (melanoma, adherent) | 0.34 | 0.0229 | 0.971 | > 5.12 | 0.925 | > 20 | 0.99 | > 0.128 | 0.979 | > 20 |  |  |
| Caov-4 (ovary, adherent) | 0.441 | 0.04 | 0.954 | > 5.12 |  |  | 0.972 | > 0.128 | 0.898 | > 20 | 0.98 | > 10 |
| DU-145 (prostate, adherent) | 0.489 | 0.0579 | 0.661 | 0.947 |  |  | 0.985 | > 0.128 | 0.881 | > 20 | 0.951 | > 10 |
| G-292 Clone A141B1 (osteosarcoma, adherent) | 0.612 | 0.152 | 0.645 | 1.03 | 0.931 | > 20 | 0.942 | > 0.128 | 0.959 | > 20 |  |  |
| H290 (mesothelioma, adherent) | 0.333 | 0.0224 | 0.774 | 1.83 |  |  | 0.968 | > 0.128 |  |  |  |  |
| HL-60 (acute myeloid leukaemia, suspension) | 0.872 | 0.785 | 0.799 | 2.17 |  |  | 0.99 | > 0.128 | 0.836 | 11.4 | 0.99 | > 10 |
| HMV-II (melanoma, adherent) | 0.112 | < 0.00391 |  |  | 0.959 | > 20 | 0.978 | > 0.128 | 0.814 | 14 | 0.968 | > 10 |
| HT-3 (cervix, adherent) | 0.628 | 0.142 |  |  | 0.88 | > 20 | 0.983 | > 0.128 | 0.936 | > 20 | 0.971 | > 10 |
| Hey (ovary, adherent) | 0.164 | 0.00642 |  |  | 0.92 | > 20 | 0.984 | > 0.128 | 0.887 | > 20 | 0.935 | > 10 |
| JHOS-2 (ovary, adherent) | 0.249 | 0.0104 |  |  | 0.962 | > 20 | 0.983 | > 0.128 | 0.81 | 12.7 | 0.962 | > 10 |
| JHOS-3 (ovary, adherent) | 0.417 | 0.0348 |  |  | 0.944 | > 20 | 0.983 | > 0.128 | 0.942 | > 20 | 0.972 | > 10 |
| JHU-029 (head and neck, adherent) | 0.389 | 0.0289 | 0.623 | 0.759 |  |  |  |  |  |  | 0.968 | > 10 |
| KP-1N (pancreas, adherent) | 0.849 | 0.802 | 0.86 | 4.61 |  |  |  |  |  |  | 0.986 | > 10 |
| KYAE-1 (oesophagus, suspension) | 0.897 | > 1 |  |  | 0.921 | > 20 | 0.974 | > 0.128 | 0.652 | 3.45 | 0.895 | > 10 |
| MKN45 (stomach, adherent) | 0.432 | 0.0389 | 0.873 | > 5.12 |  |  | 0.98 | > 0.128 | 0.93 | > 20 | 0.944 | > 10 |
| MV-4-11 (leukaemia, suspension) | 0.328 | 0.0229 | 0.203 | 0.0528 |  |  | 0.919 | > 0.128 | 0.846 | 10.9 | 0.874 | 6.83 |
| NCC021 (kidney, adherent) | 0.823 | 0.72 |  |  | 0.96 | > 20 | 0.983 | > 0.128 | 0.829 | 15.3 | 0.985 | > 10 |
| OACM5-1 (oesophagus, semi-adherent) | 0.985 | > 1 |  |  | 0.653 | 3.52 | 0.941 | > 0.128 | 0.521 | 1.43 | 0.97 | > 10 |
| OACp4C (oesophagus, adherent) | 0.386 | 0.0284 |  |  | 0.777 | 9.74 | 0.98 | > 0.128 | 0.72 | 6.02 | 0.968 | > 10 |
| OC-314 (ovary, adherent) | 0.806 | 0.425 |  |  | 0.929 | > 20 | 0.983 | > 0.128 | 0.884 | 16.3 | 0.946 | > 10 |
| OV-7 (ovary, adherent) | 0.543 | 0.0868 |  |  | 0.931 | > 20 | 0.972 | > 0.128 | 0.8 | 16.3 | 0.916 | > 10 |
| OV-17R (ovary, adherent) | 0.76 | 0.491 |  |  | 0.715 | 6.55 | 0.978 | > 0.128 | 0.729 | 7.41 | 0.975 | > 10 |
| OV-56 (ovary, adherent) | 0.744 | 0.301 |  |  | 0.849 | 14.1 | 0.989 | > 0.128 | 0.915 | > 20 | 0.985 | > 10 |
| OVCA420 (ovary, adherent) | 0.304 | 0.0145 |  |  | 0.816 | 16.1 | 0.979 | > 0.128 | 0.849 | > 20 | 0.943 | > 10 |

By IC50 is meant the dose at which the fit gives 50% viability; a limit (>, <) means that the fit lies beyond the doses tested. The AUC spans the tested range (256-fold, ending at the top dose) of the same fit; it is 1 without any effect and falls as sensitivity rises. For some of these results: The top dose, if marked as inferred, was calculated from the reported fits.
